Measurements taken from ChEMBL document CHEMBL4888484, “Replenishing the malaria drug discovery pipeline: Screening and hit evaluation of the MMV Hit Generation Library 1 (HGL1) against asexual blood stage Plasmodium falciparum ,using a nano luciferase reporter read-out” (2022).
Hit rate of the full screen: of about 150,000 compounds, about 540 (0.36%) showed an effect of 50% or more. The list shows a part of the results.

What follows are compounds tested on Plasmodium falciparum (assay: Primary screen in NF54 nanoGlo assay, in single point, at 2uM, 72h; a lower Z score goes with more inhibition). Conditions: timepoint 72 hour.
Format: functional, Erythrocyte

Row | Structure (SMILES) | % Inhibition [%] | Z score
1 | COCC(=O)N1C[C@H](c2ncco2)C2(CCN(C(=O)Cc3ccccc3)CC2)C1 | -11 | 1.66
2 | CCCn1cc(C(=O)N(C)c2cccnc2N2CCCC2)cn1 | 7 | -0.77
3 | C#CCNC(=O)CNC(=O)C1CC1c1c(F)cccc1F (stereo not drawn) | 11 | -1.47
4 | Cc1ccc([C@H](C)NS(=O)(=O)c2cc(-c3nc(C(C)(C)C)cs3)cs2)c(C)c1 | -6 | 0.8
5 | COc1ccccc1CCCN1CC(=O)N2CC[C@@H](O)C[C@H]2C1=O | 7 | -0.96
6 | NC(=O)CO[C@H]1CCC12CCN(C(=O)c1ccc3ccccc3n1)CC2 | -6 | 0.81
7 | CN1CCN(C[C@H]2CCCN(C(=O)Cc3ccncc3)C2)CC1 | -1 | 0.17
8 | CCC(Oc1ccccc1C)C(=O)Nc1ccc(N2CCCC(C(N)=O)C2)nc1 (stereo not drawn) | -1 | 0.17
9 | COc1ccc(CCNC(=O)[C@@H](Nc2ccc(C(F)(F)F)cc2Cl)C(C)C)cc1 | 0 | -0.07
10 | CO[C@@H]1CCCCC[C@@H]1S(=O)(=O)NCCNc1ncccn1 | -6 | 0.94
11 | O=C(c1ccccc1F)N(Cc1ccc(-c2ccc(Cl)cc2)o1)[C@H]1CCS(=O)(=O)C1 | -13 | 1.69
12 | Cc1c(C(=O)O)sc2ncnc(NCC3(Cn4ccnc4)CC3)c12 | -3 | 0.66
13 | O=C(c1cnccn1)N1CCC[C@H]1c1nc2ccccc2s1 | -6 | 0.74
14 | CCOc1ccc(CN2CCN(C(=O)c3ccco3)CC2)cn1 | 4 | -0.55
15 | CC(C)c1cc(NCc2csc(-c3ccn(C)n3)n2)ncn1 | -13 | 1.98
16 | Cc1ncsc1Cn1nc(C2CCNCC2)n(Cc2ccccc2)c1=O | -22 | 2.58
17 | O=C(Cc1ccccc1)N[C@H]1CCN(c2nc3ccccc3n2C2CCCC2)C1 | -8 | 1.54
18 | Cc1nn(C)c2nc(-c3cccs3)cc(C(=O)N3c4ccccc4C[C@@H]3C)c12 | -4 | 0.66
19 | COC(=O)C[C@H](c1c(Cc2ccc(OC)cc2)[nH][nH]c1=O)c1ccnn1C | -10 | 1.33
20 | CC(=O)N1CCC(NC(C)(C)Cc2ccc(Cl)cc2Cl)CC1 | -7 | 0.79
21 | CN(Cc1ccc(Br)o1)C(=O)[C@@H]1CCCO1 | -7 | 1

Row | Structure (SMILES) | % Inhibition [%] | Z score
22 | O=C1CNCCN1[C@H]1CCCN(S(=O)(=O)c2cc(Cl)cc(Cl)c2)C1 | -12 | 2.16
23 | COC(=O)CC[C@H](C)N1CCc2[nH]nc(-c3cccc(OC)c3)c2C1 | -12 | 1.12
24 | CCOC(=O)C(O)C(C)NC(=O)CCc1cccc(OC(F)F)c1 (stereo not drawn) | -1 | 0.18
25 | CNC(=O)CN1CCC(CN(C)c2ccnc3c(F)cccc23)CC1 | 1 | -0.11
26 | COc1cccc(NC(=O)N2CC[C@H]3CC(=O)Nc4ccccc4OCC[C@H]3C2)c1 | -9 | 1.71
27 | Cc1cc2cc(C(=O)N(CC(=O)O)C3CC3)oc2cc1C | -4 | 0.77
28 | CC(C)Cc1cc(C(=O)N2CC(c3ccncc3)C2)nc(=O)[nH]1 | -11 | 1.4
29 | Clc1ccc(-c2cc(CN3CCn4ccnc4C3)on2)c(Cl)c1 | 3 | -0.69
30 | CCN(CCO)c1ccc(C(=O)NC2CC2)nn1 | 0 | 0.02
31 | COC(=O)c1ccccc1N1C(=O)[C@@H]2[C@H](Cc3ccccc3)N[C@]3(C(=O)Nc4ccccc43)[C@@H]2C1=O | -10 | 1.3
32 | C[C@H]1CN(CCc2cn(CC(=O)O)nn2)CCc2ccc(F)cc21 | -9 | 1.04
33 | Cc1cccc(N2CCN(C(=O)Nc3cccnc3)[C@@H](C)C2)n1 | 3 | -0.42
34 | O=C1C[C@H](c2nc3ccccc3n2Cc2cccc3ccccc23)CN1c1ccccc1 | 2 | -0.34
35 | CS(=O)(=O)C1CCCCC1NCc1cccnc1N1CCOCC1 (stereo not drawn) | -5 | 1.05
36 | CCCc1cc(C(=O)NCCN2CCOC2=O)no1 | -7 | 0.85
37 | O=C(NCCCc1ccccc1F)[C@@H]1NCCc2[nH]cnc21 | -6 | 0.6
38 | COCc1ncc(C)n1CC1CCN(C(=O)C(C)C)CC1 | 9 | -1.24
39 | CCOCCN1CCC[C@H](S(=O)(=O)NC)C1 | -7 | 0.8
40 | CCCN(Cc1cc(=O)n(C)c(=O)n1C)C1CC(OCC)C1(C)C (stereo not drawn) | 1 | -0.07
41 | CC(C)CN1CCN([C@H]2CCOC3(CCN(C(=O)c4ccc5cc[nH]c5c4)CC3)C2)CC1 | -16 | 1.72
42 | Cc1ccc(NC(=O)C2CC3C=CC2C3)nc1 (stereo not drawn) | 0 | 0.06

Row | Structure (SMILES) | % Inhibition [%] | Z score
43 | CN1CCC[C@H](CNC(=O)c2cncc(C(=O)O)c2)[C@H]1c1ccccc1 | -4 | 0.64
44 | COc1cccc(NC(=O)C2=Cc3cc(Cl)cc(OC)c3OC=C2)c1 | 41 | -5.55
45 | CCOCCCC(=O)N1CCc2cc(OC)c(OC)cc2[C@@H]1C1CC1 | -12 | 2.16
46 | CC(C)(C)c1nc(CN2CCC[C@H]2c2ccsc2)no1 | -4 | 0.52
47 | O=S(=O)(NCc1nc(C2CCC(F)(F)CC2)no1)c1ccc(-n2cccn2)cc1 | -16 | 1.98
48 | Cc1cc(C)c(S(=O)(=O)NCc2nc(C(=O)O)c(C)s2)s1 | -16 | 1.91
49 | COCCNC(=O)c1cn2c(n1)CC[C@H](c1cc(C(F)(F)F)cc(C(F)(F)F)c1)C2 | -9 | 1.42
50 | O=C1CN(C(=O)CCC(F)(F)F)CCN1CCc1ccccc1 | -4 | 0.88
51 | COc1ccccc1C(=O)NC[C@H]1Cn2ccnc2CO1 | -9 | 1.35
52 | COc1cccc(CC(=O)N[C@H]2CCN(c3cc(C)cc(C)c3)C2=O)c1 | -5 | 0.72
53 | O=C(CNC(=O)C1CCCC1)N[C@H]1CCN(C(=O)COc2ccccc2)C1 | -5 | 0.58
54 | CCOC(=O)N(C)CC(=O)NCC(=O)OCC1CC1 | 6 | -0.7
55 | CC(=O)N1CC(C(=O)NCCc2ccc(F)cc2)C1 | -12 | 1.58
56 | CCCc1nnc(N2CCc3[nH]c4ccc(C)cc4c3C2)o1 | -6 | 1.04
57 | CCOC[C@H]1CCCN(S(=O)(=O)c2cnnn2C)C1 | 3 | -0.32
58 | Cc1cnc(C(=O)N2CCC3(CC2)c2[nH]c4ccccc4c2CCN3C)cn1 | -3 | 0.63
59 | O=C(c1ccc2c(c1)OCCO2)N1CCN(c2cnccn2)CC1 | -10 | 0.96
60 | O=C(Cc1ccon1)N(Cc1ccccc1O)C[C@H]1CCCO1 | -11 | 1.46
61 | CS(=O)(=O)N1CC[C@H](Oc2ccc3ccccc3n2)C1 | 3 | -0.63
62 | CN1CCN(Cc2ccc3cccc(Cl)c3n2)C[C@]12CCNC(=O)CC2 | -16 | 3.14
63 | CCn1cc(C)c(C(=O)O)c1CC(=O)N1CCc2ccccc2C1 | 5 | -0.62

Row | Structure (SMILES) | % Inhibition [%] | Z score
64 | Fc1ccc(COc2ccc(Cl)cc2CNCc2ccc3c(c2)OCO3)cc1 | -3 | 0.36
65 | Cc1cc(=O)n2nc(CCC(=O)N[C@H](CO)Cc3ccccc3)nc2[nH]1 | -4 | 0.5
66 | Oc1c2c(nc3ccccc13)CCCCC2 | 25 | -3.15
67 | CC12CCN(S(=O)(=O)C3CC3)CC1C2(F)F (stereo not drawn) | -8 | 0.64
68 | COc1ccc(CNC(=O)c2cnc3c(C)cccn3c2=O)c(C)c1 | 2 | -0.32
69 | Cc1ncsc1CCN1CCN(CCc2cccs2)CC1 | -3 | 0.38
70 | CCn1c(-n2nc(CC(N)=O)nc2CN2CCCC2)nc2ccccc21 | -20 | 2.13
71 | Cc1cc(NS(=O)(=O)c2onc(C3CC3)c2Cl)c[nH]c1=O | -2 | 0.31
72 | COCCN(CC(=O)Nc1cc(N2CCN(C(=O)NC(C)C)CC2)ccc1Cl)C(=O)c1ccccc1Cl | -25 | 2.66
73 | O=S(=O)(c1cc(F)ccc1F)N1CCC[C@H]1c1nncn1Cc1ccncc1 | -6 | 1.21
74 | c1ccc(-c2noc(-c3nc(-c4cccnc4)no3)n2)cc1 | -3 | 0.35
75 | CN1C[C@@H]2C[C@H]1C(=O)N[C@H](Cc1ccccc1)C(=O)NCc1cn(nn1)CCOc1cccc(c1)C(=O)N2 | -9 | 1.54
76 | O=C(NCC1CCOCC1)c1cccc(S(=O)(=O)N[C@H]2CCNC2=O)c1 | -6 | 1.09
77 | Fc1cc(Br)cnc1CN1CCC[C@H]1c1ncn[nH]1 | 19 | -2.4
78 | Cc1nc[nH]c1-c1c(-c2ccccc2)ncn1CC1CCOCC1 | -3 | 0.24
79 | O=C(c1cc(CO)ccn1)N1CCCC[C@@H]1CCc1cccc(O)c1 | -19 | 1.78
80 | COc1cc(OC)cc(C(=O)N2CCN(C3CCCCCC3)CC2)c1 | -4 | 0.73
81 | CS(=O)(=O)C[C@H]1CN(C(=O)NCC=CC2CC2)CCO1 | 6 | -0.7
82 | Cc1nnc2ncc(-c3ccc(F)c(C(F)(F)F)c3)cn12 | -9 | 1.76
83 | COc1ccc(OC)c(C(C)NCC(C#N)CCC#N)c1 (stereo not drawn) | -10 | 1.39
84 | CCC(C)N(C(=O)c1csnc1C)C(C)CC (stereo not drawn) | -9 | 0.89
